The campaign covered roughly 230,000 compounds. About 3,600 (1.6%) were called active. The shares of active, inactive and inconclusive entries below differ from those in the screen. Calls follow the shape of the dose curve; as a rule, active = well fitted inhibition curve with a large enough effect (not every such curve was filed as active); inconclusive = small, poorly fitted or top-dose-only effect, or another doubt; inactive = no such curve, though single readings can be large or run the other way. A potency beside an inconclusive call is a rough fit, not a confirmed value.
molecular target: Lysine-specific demethylase 4E (Homo sapiens) (UniProt B2RXH2); test: qHTS Assay for Inhibitors of Human Jumonji Domain Containing 2E (JMJD2E); conditions: JMJD2E catalytic domain, FDH-coupled NADH fluorescence (FDH is formaldehyde dehydrogenase); series mostly up to 57.1 µM; activity change, negative = inhibition: at the top concentration
Sequence of UniProt B2RXH2 (B2RXH2 whole entry, looked up, the tested form may be a part): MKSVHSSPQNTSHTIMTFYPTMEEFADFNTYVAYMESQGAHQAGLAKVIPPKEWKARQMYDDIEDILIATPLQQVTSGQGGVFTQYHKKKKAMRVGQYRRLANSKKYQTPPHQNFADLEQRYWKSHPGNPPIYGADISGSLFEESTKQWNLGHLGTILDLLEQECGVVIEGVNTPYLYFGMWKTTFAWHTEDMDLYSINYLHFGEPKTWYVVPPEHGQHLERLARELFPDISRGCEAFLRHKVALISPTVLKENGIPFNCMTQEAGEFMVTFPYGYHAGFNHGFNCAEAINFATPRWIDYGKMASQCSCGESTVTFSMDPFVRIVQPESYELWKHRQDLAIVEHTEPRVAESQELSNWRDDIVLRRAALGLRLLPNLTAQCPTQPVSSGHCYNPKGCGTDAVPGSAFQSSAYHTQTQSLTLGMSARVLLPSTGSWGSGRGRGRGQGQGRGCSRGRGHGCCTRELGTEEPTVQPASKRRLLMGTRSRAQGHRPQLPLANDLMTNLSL
Also: nearly all actives have a fitted effect of over 50% in size.
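For activity change, negative = inhibition in this document: 0% = wells with enzyme and -100% = buffer wells without enzyme.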
Potency is read from the fitted curve at half-maximal effect; tags tell the direction and shape of the fitted curve.

Row | SMILES | activity change, negative = inhibition | Potency
1 | Cc1sc(-n2cccc2)c(C(=O)O)c1C | inactive: -0.929% | 
2 | Cc1ccc(N=C/C(C(=O)C(F)(F)F)=C(\O)c2ccco2)cc1Cl |  | inconclusive: 31.6 µM [inhibitor, single point]
3 | CC(=O)C1=C(O)C(=O)N(CCc2c[nH]c3ccccc23)C1c1ccccc1 (stereo not given) |  | inconclusive: 10 µM [inhibitor, partial curve, poor fit]
4 | Fc1ccc2c(Cl)c(-c3nnc(-c4cccs4)o3)sc2c1 |  | inconclusive: 0.708 µM [inhibitor, full curve]
5 | COc1ccc(C(C(N)=O)c2ncc(C(F)(F)F)cc2Cl)cc1OC (stereo not given) | inactive: 6.52% | 
6 | COC(=O)C1=CNC=C(C(=O)OC)C1c1ccc(C(=O)OC)cc1 |  | inconclusive: 28.2 µM [inhibitor, partial curve]
7 | COC(=O)c1n[nH]c2ccccc12 |  | inconclusive: 28.2 µM [inhibitor, single point]
8 | O=C1C2Sc3[nH]c(=O)sc3C(c3ccccc3)C2C(=O)N1c1ccc(Cl)cc1 (stereo not given) | inactive: 5.58% | 
9 | CCOC(=O)c1ccccc1NC(=O)N1CCn2c(C)ccc2C1CC (stereo not given) |  | inconclusive: 28.2 µM [inhibitor, partial curve]
10 | COC(=O)c1ccc(CSc2nc(C(F)(F)F)c3c(c2C#N)CCC3)o1 |  | inconclusive: 39.8 µM [inhibitor, single point]
11 | CCc1ccc(NC(=O)Cn2cnc3c(=O)n(C)c(=O)n(C)c32)cc1 | inactive: -11.7% | 
12 | COc1ccnc(CSC(N)=Nc2cccc(C(F)(F)F)c2)c1 |  | inconclusive: 28.2 µM [inhibitor, partial curve]
13 | O=C(N/N=C/c1ccc[nH]1)c1ccc(O)cc1 |  | inconclusive: 14.1 µM [inhibitor, partial curve, poor fit]
14 | CC(=O)C1=C(C)NC(SCC(=O)c2ccc(Cl)cc2Cl)=C(C#N)C1c1ccco1 (stereo not given) | inactive: -27.4% | 
15 | Cc1ccc(/C=N/N=C2/NC(=O)C(CC(=O)N3CCOCC3)S2)cc1 (stereo not given) | inactive: 9.72% | 
16 | CN1N=C2c3ccccc3CCC2C1c1ccc(F)cc1 (stereo not given) |  | inconclusive: 35.5 µM [inhibitor, partial curve]
17 | CC(C(=O)N1CCc2ccccc21)N1CCc2ccccc2C1 (stereo not given) |  | inconclusive: 35.5 µM [inhibitor, single point]
18 | CCN1CCC2(CC1)N=C(c1ccc(F)cc1)C(=S)N2 |  | inconclusive: 39.8 µM [inhibitor, single point]
19 | COC(=O)c1ccc(COC(=O)c2ccc(SC)cc2OC)cc1 |  | inconclusive: 39.8 µM [inhibitor, single point]
20 | COc1ccc(/C=C2/S/C(=N/S(=O)(=O)Cc3ccccc3)NC2=O)cc1OC |  | inconclusive: 31.6 µM [inhibitor, single point]
21 | Cc1ccc(Cl)cc1NC(=O)COC(=O)c1ccc(COc2ccc3c(C)cc(=O)oc3c2)cc1 |  | inconclusive: 31.6 µM [inhibitor, partial curve]
22 | Cc1c(/C=C/C(=O)c2ccc(O)cc2)cnn1C |  | inconclusive: 35.5 µM [inhibitor, single point]
23 | Nc1ccccc1Oc1c(F)c(F)c(Oc2ccccc2N)c(F)c1F |  | inconclusive: 2.51 µM [inhibitor, full curve]

Row | SMILES | activity change, negative = inhibition | Potency
24 | CCOC(=O)N1CCC(NC(=O)c2cc3c(=O)n(C)c4ccccc4c3n2C)CC1 |  | inconclusive: 25.1 µM [inhibitor, single point]
25 | OCCNc1nc(N2CCN(Cc3ccccc3)CC2)nc2ccccc12 |  | inconclusive: 31.6 µM [inhibitor, single point]
26 | CCCCn1c(=O)c(CCC(=O)OCC(=O)Nc2ccc(F)c(Cl)c2)nc2ccccc21 |  | inconclusive: 35.5 µM [inhibitor, single point]
27 | O=Cc1nc(-c2ccc(Cl)cc2)n2ccccc12 |  | inconclusive: 35.5 µM [inhibitor, single point]
28 | COc1ccc(Nc2c(-c3ccco3)nc3ccc(C)cn23)cc1 |  | inconclusive: 7.94 µM [inhibitor, partial curve]
29 | CCC(=O)Oc1ccc2oc(=O)cc(C)c2c1 |  | inconclusive: 35.5 µM [inhibitor, single point]
30 | C/C(=N/NC(=S)Nc1cccc(C)c1)c1cccc([N+](=O)[O-])c1 | inactive: -2.74% | 
31 | COc1ccccc1N=C1SC(C(=O)Nc2ccc(F)cc2)CC(=O)N1C (stereo not given) | inactive: 8.39% | 
32 | Cc1ccc(C)c(S(=O)(=O)Nc2nc3ccc(S(N)(=O)=O)cc3s2)c1 |  | inconclusive: 25.1 µM [inhibitor, single point]
33 | CN1CCc2cc(Cl)c(O)cc2C(c2ccccc2)C1 (stereo not given) | inactive: 4% | 
34 | Cc1ccc(-n2c(SCC(=O)Nc3ccc4c5c(cccc35)CC4)nc(O)c(C)c2=O)cc1 |  | inconclusive: 22.4 µM [inhibitor, partial curve]
35 | Cc1ccc(NC(=O)CCN2C(=O)c3cccc4cccc(c34)C2=O)cc1 |  | inconclusive: 35.5 µM [inhibitor, single point]
36 | Cc1c(-c2nnc(-c3ccc(C(F)(F)F)cc3)o2)cnn1-c1ccccc1 |  | inconclusive: 20 µM [inhibitor, single point]
37 | CN(C)c1ccc(N=C/C=C2\N(C)c3ccccc3C2(C)C)cc1 |  | inconclusive: 39.8 µM [inhibitor, single point]
38 | C=CCn1c(CNc2ccccc2)nnc1SCC(=O)N/N=C/c1ccc(O)cc1O |  | active: 22.4 µM
39 | COc1ccc2c(C)c(C)c(=O)oc2c1OC |  | inconclusive: 35.5 µM [inhibitor, partial curve]
40 | Cc1c(-c2ccccc2)nc(N)c(C#N)c1-c1cccnc1 |  | inconclusive: 31.6 µM [inhibitor, single point]
41 | COC(=O)c1ccc(C(=O)OC)c(=O)[nH]1 |  | inconclusive: 28.2 µM [inhibitor, partial curve]
42 | Cc1nc(CCN2C(=O)c3ccccc3C2=O)cs1 | inactive: 4.86% | 
43 | O=C(CO/N=C/c1ccc(OC(F)F)cc1)NCc1cccs1 | inactive: 0.832% | 
44 | O=c1c2c(nc3cc(-c4cccc(F)c4)[nH]n13)CCC2 |  | inconclusive: 6.31 µM [inhibitor, full curve]
45 | COC(=O)c1sccc1NC(=O)c1ccc(OC)cc1 |  | inconclusive: 39.8 µM [inhibitor, single point]

Reference: PubChem BioAssay AID2147 (National Center for Advancing Translational Sciences (NCATS), 2009)
